PubChem BioAssay AID1460 (National Center for Advancing Translational Sciences (NCATS), 2008)
Values joined by “and” are separate entries in the source; they are usually repeats but may differ in a detail not shown here. Identical values can stand only once. Screen size: about 270,000 compounds; about 5,800 (2.1%) were called active. Inconclusive results, whose numbers are uncertain, are shown with a selection of clear calls. Calls follow the shape of the dose curve; as a rule, active = well fitted inhibition curve with a large enough effect; inconclusive = small, poorly fitted or top-dose-only effect; inactive = flat fitted curve, though single readings scatter. Potencies beside an inconclusive call are fits to weak or partial responses and may not hold up.
% is scaled to controls: 0 for no effect and ±100 for the full control effect; potency is read from the fitted curve at half-maximal effect; tags tell the direction and shape of the fitted curve.
Also: nearly all actives have a fitted effect of over 55% in size.

The compounds below were run against Microtubule-associated protein tau (Homo sapiens) (UniProt P10636) (assay: qHTS for Inhibitors of Tau Fibril Formation, Thioflavin T Binding). Conditions: recombinant tau K18 P301L (four-repeat tau fragment), heparin-induced fibrillization, ThT fluorescence; series mostly up to 57.4 µM; activity, negative = inhibition: at the top concentration.
UniProt P10636, sequence (P10636 whole entry, looked up, the tested form may be a part): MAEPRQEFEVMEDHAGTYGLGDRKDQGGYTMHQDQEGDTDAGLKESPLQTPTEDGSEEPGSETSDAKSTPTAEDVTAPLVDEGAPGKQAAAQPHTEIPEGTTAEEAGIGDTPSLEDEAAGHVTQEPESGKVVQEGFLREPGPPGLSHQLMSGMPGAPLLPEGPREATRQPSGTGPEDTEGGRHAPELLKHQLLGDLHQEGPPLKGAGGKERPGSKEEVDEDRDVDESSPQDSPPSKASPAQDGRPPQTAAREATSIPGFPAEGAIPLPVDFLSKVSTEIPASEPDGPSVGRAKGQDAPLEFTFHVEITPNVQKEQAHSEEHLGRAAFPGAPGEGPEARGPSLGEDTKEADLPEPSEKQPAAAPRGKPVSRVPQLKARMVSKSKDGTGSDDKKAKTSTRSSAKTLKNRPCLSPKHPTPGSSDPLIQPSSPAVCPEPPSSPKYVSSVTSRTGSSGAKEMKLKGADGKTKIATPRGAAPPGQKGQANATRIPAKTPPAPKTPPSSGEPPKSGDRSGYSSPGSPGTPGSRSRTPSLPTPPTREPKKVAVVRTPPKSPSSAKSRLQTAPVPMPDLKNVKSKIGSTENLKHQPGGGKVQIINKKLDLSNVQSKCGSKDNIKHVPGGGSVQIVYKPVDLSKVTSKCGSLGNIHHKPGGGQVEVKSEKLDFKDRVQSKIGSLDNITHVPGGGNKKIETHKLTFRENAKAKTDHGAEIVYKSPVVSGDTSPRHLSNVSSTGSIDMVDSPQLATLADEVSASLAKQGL
Outline: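 Aggregation was driven by heparin (20 uM final) acting on recombinant tau […] bearing P301L in 100 mM sodium acetate pH 7; fibrils were detected with Thioflavin T.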
For `Cc1c(C(=S)Nc2ccccc2)cnn1-c1ccccc1`, the Potency was inconclusive: 20 µM [inhibitor, partial curve].
`COc1ccc(-c2nc3n(n2)C(=O)CC(c2ccco2)S3)cc1` (stereo unspecified) was tested, and the Potency was inconclusive: 25.1 µM [inhibitor, single point].
In the case of `COc1ccc(-n2nc3ccc(NC(=O)c4cc5ccccc5o4)cc3n2)cc1Cl`, the Potency is reported as inconclusive: 0.631 µM [inhibitor, partial curve, poor fit].
`CCN1CCN(c2cc(C)c3cc(NC(=S)NCc4cccs4)ccc3n2)CC1` was tested, and the Potency was inconclusive: 39.8 µM [inhibitor, single point].
In the case of `CC1=C(C#N)C(c2cccnc2)C2=C(N1)c1ccccc1C2=O` (stereo unspecified), the Potency is reported as inconclusive: 39.8 µM [inhibitor, single point].
With `CCC(CC)C(=O)Nc1cccc(-c2nc3cccnc3s2)c1C` the “activity, negative = inhibition” value was inactive: -6.46%.
`Cc1cccc(NCC(=O)N/N=C\c2cccc(Oc3ccccc3)c2)c1` was tested, and the Potency was inconclusive: 3.98 µM [inhibitor, full curve, poor fit].
In the case of `CCCCC/C=C\C/C=C\C/C=C\CCCCC(=O)NC(C)C(=O)O` (stereo unspecified), the “activity, negative = inhibition” value is reported as inactive: -6.03%.
`COc1ccccc1C(=O)Nc1ccc2c(c1)nc1n2CCN(Cc2ccccc2)C1` was tested, and the Potency was inconclusive: 8.91 µM [inhibitor, partial curve].
For `O=C(CN1CCN(c2ccc(Cl)cc2)CC1)Nc1ccc(F)cc1F`, the Potency was inconclusive: 15.8 µM [inhibitor, partial curve, poor fit].
In the case of `CCOC(=O)c1ccc(NC(=O)c2cccc(C)c2[N+](=O)[O-])cc1`, the Potency is reported as inconclusive: 22.4 µM [inhibitor, single point].
For `COc1ccc(-c2csc(NC(=S)NC(=O)c3cccs3)n2)cc1OC`, the Potency was inconclusive: 6.31 µM [inhibitor, partial curve].
For `CCOc1ccc(Oc2cc(N)cc([N+](=O)[O-])c2)cc1`, the Potency was inconclusive: 6.31 µM [inhibitor, partial curve].
With `Cc1cccn2c(=O)c(/C=C(\C#N)c3nc4ccccc4n3C)c(Oc3ccc(Br)cc3)nc12` the Potency was inconclusive: 28.2 µM [activator, partial curve].
In the case of `CCN(CC)c1ccc(/C=N/NC(=S)NCc2ccccc2)c(O)c1`, the Potency is reported as inconclusive: 12.6 µM [inhibitor, partial curve].
`O=c1oc2ccccc2cc1-c1cn2ccccc2n1` was tested, and the Potency was inconclusive: 3.16 µM [inhibitor, full curve].
`CCCCCCCc1cc2c(cn1)C(=O)C(C)(OC(C)=O)C(O)=C2Cl` (stereo unspecified) was tested, and the Potency was inconclusive: 35.5 µM [inhibitor, partial curve].
With `Cn1c(=O)c(C(=O)COC(=O)c2cc(-c3ccco3)nc3ccccc23)c(N)n(Cc2ccccc2)c1=O` the Potency was inconclusive: 17.8 µM [inhibitor, partial curve] and inconclusive: 11.2 µM [inhibitor, partial curve].
With `Cn1c(-c2ccc([N+](=O)[O-])cc2)nc2ccccc21` the “activity, negative = inhibition” value was inactive: -23.6%.
With `COc1ccc(C(=O)CSc2ncnc3nc[nH]c23)cc1` the Potency was inconclusive: 11.2 µM [inhibitor, partial curve, poor fit].
In the case of `COc1ccc(C)cc1-n1c(C)cc(C=O)c1C`, the “activity, negative = inhibition” value is reported as inactive: -3.83%.
In the case of `CC(C)(C)C1CCC2(CC1)Nc1cccc3cccc(c13)N2`, the Potency is reported as inconclusive: 0.398 µM [inhibitor, full curve, poor fit].
With `Clc1ccc2c(c1)C1OCCC1C(c1ccco1)N2` (stereo unspecified) the Potency was inconclusive: 14.1 µM [inhibitor, partial curve].
`COc1ccc(CNC(=O)CCn2nc(C)c3c(C)n(-c4ccccc4)nc3c2=O)cc1OC` was tested, and the Potency was inconclusive: 4.47 µM [activator, full curve, poor fit].
`Oc1c(Br)cc(/C=N/NC(=S)NCc2ccco2)cc1Br` was tested, and the Potency was inconclusive: 25.1 µM [inhibitor, partial curve].
`CC(C)C(=O)c1cc2c(cc1NC(=O)c1ccccc1)OCCO2` was tested, and the “activity, negative = inhibition” value was inactive: 4.43%.
For `Cc1cc(Nc2cccc(C(F)(F)F)c2)nc2ccc(NC(=O)c3ccc(N(C)C)cc3)cc12`, the Potency was active: 3.55 µM.
`CCOc1ccc(NC(=O)c2ccc(CC)s2)c([N+](=O)[O-])c1` was tested, and the Potency was inconclusive: 0.631 µM [inhibitor, full curve].
In the case of `Cc1cc(O)c(C(c2ccc(F)cc2)N2CCCCC2)c(=O)n1Cc1ccco1` (stereo unspecified), the Potency is reported as inconclusive: 39.8 µM [inhibitor, single point].
`Cc1noc(NS(=O)(=O)c2ccc(N/C=C\C(=O)c3ccncc3)cc2)c1C` was tested, and the Potency was inconclusive: 15.8 µM [inhibitor, partial curve].
In the case of `Cc1ccc(NC(=O)c2sc3ccccc3c2Cl)cc1`, the Potency is reported as inconclusive: 0.447 µM [inhibitor, full curve].
`C[C@@H]1O[C@@H](Oc2c(-c3cc(O)c(O)c(O)c3)oc3cc(O)cc(O)c3c2=O)[C@H](O)[C@H](O)[C@H]1O` was tested, and the Potency was inconclusive: 17.8 µM [inhibitor, partial curve].
In the case of `CC(=O)Nc1ccc(N2C(=O)CC(c3ccccc3)CC2=O)cc1`, the “activity, negative = inhibition” value is reported as inactive: -0.0741%.
`O=C(NC(=S)Nc1ccc(N2CCOCC2)cc1)c1ccc(Cl)cc1` was tested, and the Potency was inconclusive: 1 µM [inhibitor, full curve].
`Nc1cc(OC(=O)c2ccccc2Br)nn1S(=O)(=O)c1ccccc1` was tested, and the Potency was inconclusive: 3.16 µM [inhibitor, partial curve].
With `CC1CN=C(N(C(=O)Nc2ccccc2)c2ccc(F)cc2)S1` (stereo unspecified) the “activity, negative = inhibition” value was inactive: -3.5%.
For `CC[C@H](C)C(C(=O)N1CCN(C(=O)OC(C)(C)C)CC1)n1cc(C(CC(C)C)NC(=O)OC(C)(C)C)nn1` (stereo partly specified), the Potency was inconclusive: 11.2 µM [inhibitor, single point].
With `CCCCOC(=O)NS(=O)(=O)c1sc(CC(C)C)cc1-c1ccc(Cn2c(CC)nc3c(C)cc(C)nc32)cc1` the Potency was inconclusive: 28.2 µM [inhibitor, partial curve, poor fit].
With `CCN(Cc1ccccc1)C(=O)COC(=O)c1cc(S(=O)(=O)Nc2c(C)n(C)n(-c3ccccc3)c2=O)ccc1C` the Potency was inconclusive: 14.1 µM [inhibitor, partial curve, poor fit].
For `COc1cc(NS(=O)(=O)c2ccc(N=Cc3c(C)[nH]n(-c4ccccc4)c3=O)cc2)nc(OC)n1`, the “activity, negative = inhibition” value was inactive: -9.16%.
`CCOC(=O)c1ccc(OCC2c3cc(OC)c(OC)cc3CCN2C(=O)Cc2ccc(F)cc2)cc1` (stereo unspecified) was tested, and the “activity, negative = inhibition” value was inactive: -5.21%.
For `CCOc1ccc(C(=O)Nc2ccc(N3CCN(C(C)=O)CC3)cc2)cc1[N+](=O)[O-]`, the Potency was inconclusive: 2.51 µM [inhibitor, partial curve].
With `COc1ccccc1N1CCN(C(CNC(=O)c2ccco2)c2cccnc2)CC1` (stereo unspecified) the Potency was inconclusive: 11.2 µM [inhibitor, partial curve].
`C/C(CC(=O)Nc1ccc(Cl)c(C(F)(F)F)c1)=N\NC(=O)c1cc2ccccc2cc1O` was tested, and the Potency was active: 12.6 µM.
`O=C(NCC(c1ccc2c(c1)OCO2)N1CCN(c2ccccc2)CC1)c1ccccc1F` (stereo unspecified) was tested, and the “activity, negative = inhibition” value was inactive: -15.3%.
With `O=C(O)CCCN1C(=O)/C(=C/C=C/c2ccco2)SC1=S` the Potency was active: 3.16 µM.
For `COc1ccc(CN(CCC(c2ccc3c(c2)OCO3)c2ccccc2OC)C(C)=O)cc1` (stereo unspecified), the Potency was inconclusive: 17.8 µM [inhibitor, partial curve].
For `CCOc1ccc(C(=O)N2CCN(c3cccc(Cl)c3)CC2)cc1`, the Potency was inconclusive: 20 µM [inhibitor, single point].
With `Cc1cc(C)cc(NC(=O)Cn2nnc3ccccc3c2=O)c1` the “activity, negative = inhibition” value was inactive: -11.1%.
`O=S(=O)(/C=C/c1ccccc1)N1CCN(c2nc(-c3cccnc3)nc3ccccc23)CC1` was tested, and the “activity, negative = inhibition” value was inactive: -2.65%.
With `Cc1ccc(C2CC(=O)Oc3cc(C)c(Cl)cc32)cc1` (stereo unspecified) the “activity, negative = inhibition” value was inactive: -16.5% [at 81.4 µM].
With `Cc1nn(-c2ccccc2)cc1C(c1c(N)[nH]c(=S)[nH]c1=O)c1c(N)[nH]c(=S)[nH]c1=O` the Potency was inconclusive: 25.1 µM [inhibitor, partial curve].
In the case of `CC(C)C(=O)NC(c1ccco1)c1ccc2cccnc2c1O` (stereo unspecified), the “activity, negative = inhibition” value is reported as inactive: -9.98%.
In the case of `CC(=O)c1ccc(N2CCN(C(=O)Nc3cn(CC(C)C)c(=O)c4ccccc34)CC2)cc1`, the Potency is reported as inconclusive: 28.2 µM [inhibitor, single point].
In the case of `COC(=O)c1cc(-c2ccccc2)sc1NC(=O)CN1C(=O)c2ccccc2C1=O`, the “activity, negative = inhibition” value is reported as inactive: -3.95%.
`O=C(NNC(=O)c1c(F)cccc1F)c1ccccc1-n1cccc1` was tested, and the “activity, negative = inhibition” value was inactive: -6.88%.
`COC(=O)c1c(C)oc2ccc(N(C(=O)Oc3ccccc3)S(=O)(=O)c3ccc(Cl)c([N+](=O)[O-])c3)cc12` was tested, and the Potency was inconclusive: 5.01 µM [inhibitor, full curve, poor fit].
`COC(=O)c1cc(NC(=O)c2cccc(C(F)(F)F)c2)c(=O)oc1C` was tested, and the “activity, negative = inhibition” value was inactive: -11.9%.
In the case of `NC(=O)CC(NC(=O)Cc1cccc2ccccc12)c1ccc(NCc2cc(F)ccc2F)c([N+](=O)[O-])c1` (stereo unspecified), the Potency is reported as inconclusive: 2.24 µM [inhibitor, full curve].
`CCOC(=O)c1sc(=NC(=O)c2ccc(OC(C)C)cc2)n(C)c1C` was tested, and the “activity, negative = inhibition” value was inactive: -2.52%.
For `N#C/C(=C\c1ccc(N2CCCCC2)o1)C(N)=O`, the Potency was inconclusive: 17.8 µM [inhibitor, partial curve].
With `CC(=O)Nc1ccc(S(=O)(=O)NCC(=O)NC(C)c2ccc(S(N)(=O)=O)cc2)cc1` (stereo unspecified) the “activity, negative = inhibition” value was inactive: 9.07%.
With `Cc1ccc(C(=O)NCCSc2snnc2C)cc1` the Potency was inconclusive: 20 µM [inhibitor, partial curve].
With `COc1ccccc1C1=NOC(COC(=O)c2ccc(Br)cc2)C1` (stereo unspecified) the Potency was inconclusive: 14.1 µM [inhibitor, partial curve].
For `CC(=O)c1ccc(NC(=O)COc2ccccc2-c2nc(C(C)C)no2)cc1`, the Potency was inconclusive: 39.8 µM [inhibitor, single point].
In the case of `COc1ccc(O)c(/C=N/c2sc(C)c(C)c2C#N)c1`, the Potency is reported as inconclusive: 4.47 µM [inhibitor, partial curve].
